# Assay results taken from PMC4336329 (PLoS ONE, 2015).
# The campaign covered roughly 310,000 compounds. About 2,200 (0.71%) showed an effect of 50% or more. The effect is printed as a negative number. The list shows a part of the results.
# Target: human ether-à-go-go-related gene (hERG) potassium channel (human, UniProt Q12809)
# Experiment: primary screen, population patch clamp on CHO cells stably expressing hERG
# Chain of human ether-à-go-go-related gene (hERG) potassium channel (Q12809 whole entry, looked up): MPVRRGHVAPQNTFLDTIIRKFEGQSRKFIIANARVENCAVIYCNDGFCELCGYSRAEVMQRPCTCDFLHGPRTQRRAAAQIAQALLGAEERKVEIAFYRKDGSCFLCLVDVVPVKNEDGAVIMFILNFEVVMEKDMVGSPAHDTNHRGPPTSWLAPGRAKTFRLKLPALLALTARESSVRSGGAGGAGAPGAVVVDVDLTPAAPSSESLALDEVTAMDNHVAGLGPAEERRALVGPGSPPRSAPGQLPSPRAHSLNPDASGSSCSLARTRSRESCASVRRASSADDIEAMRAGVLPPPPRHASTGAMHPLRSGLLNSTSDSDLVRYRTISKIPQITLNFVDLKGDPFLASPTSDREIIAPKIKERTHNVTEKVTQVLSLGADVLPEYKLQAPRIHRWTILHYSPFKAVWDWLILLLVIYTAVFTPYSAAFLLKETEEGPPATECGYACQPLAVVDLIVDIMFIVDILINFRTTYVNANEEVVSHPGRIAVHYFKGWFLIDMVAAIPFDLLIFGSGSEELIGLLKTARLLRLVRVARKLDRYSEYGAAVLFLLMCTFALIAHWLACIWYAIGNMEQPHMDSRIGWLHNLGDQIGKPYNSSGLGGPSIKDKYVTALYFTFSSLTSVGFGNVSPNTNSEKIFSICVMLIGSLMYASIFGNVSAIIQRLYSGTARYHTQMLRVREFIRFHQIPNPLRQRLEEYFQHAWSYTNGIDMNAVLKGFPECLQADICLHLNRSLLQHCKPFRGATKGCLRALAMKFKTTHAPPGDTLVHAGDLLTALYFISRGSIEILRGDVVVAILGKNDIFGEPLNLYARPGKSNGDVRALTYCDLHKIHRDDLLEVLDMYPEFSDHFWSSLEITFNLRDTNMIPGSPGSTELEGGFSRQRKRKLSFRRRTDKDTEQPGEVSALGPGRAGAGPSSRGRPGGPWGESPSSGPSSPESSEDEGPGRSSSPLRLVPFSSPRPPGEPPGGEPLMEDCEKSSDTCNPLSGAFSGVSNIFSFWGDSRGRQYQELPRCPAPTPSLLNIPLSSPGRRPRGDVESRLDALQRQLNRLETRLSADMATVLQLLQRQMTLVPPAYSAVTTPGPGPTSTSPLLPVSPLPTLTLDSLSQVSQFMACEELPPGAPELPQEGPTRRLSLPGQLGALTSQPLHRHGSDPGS
row,SMILES,"hERG current change (%, negative = inhibition) at 1uM [%]"
1,COc1ccccc1NC(=O)/C(C#N)=C/c1c(C)nn(-c2ccc(F)cc2)c1Cl,8.75
2,CCOC(=O)n1c(=O)n(Cc2ccccc2)c2ccccc21,6.17
3,CC1CCC(NS(=O)(=O)c2ccc3c(c2)n(C)c(=O)c(=O)n3C)CC1 (stereo not shown),-24.4
4,O=C(O)CSc1ncccn1,13.4
5,O=C(NCc1ccncc1)C(=O)Nc1ccc2c(c1)OCO2,4.99
6,O=C(NCCc1c[nH]c2ccccc12)C(=O)NCC1OCCN1S(=O)(=O)c1ccccc1 (stereo not shown),11.8
7,Cc1ccc(NC(=O)C2CCCN(S(=O)(=O)c3ccc4[nH]c(=O)ccc4c3)C2)cc1C (stereo not shown),-0.277
8,COc1ccc(CCNC(=O)CSc2nnc(CNC(=O)c3cc(OC)c(OC)c(OC)c3)o2)cc1OC,21.1
9,N#CC1=C(N2CCCCC2)c2cc3c(n2C1=O)CCCC3,0.989
10,O=C(c1cc(-c2ccccc2)on1)N1CCN(C(=O)c2ccco2)CC1,-8.13
11,COc1ccc(C)cc1Nc1nc(-c2ccccc2O)nc2ccccc12,12.4
12,CN(C)c1nc(Oc2ccc(C(=O)OCC(=O)Nc3ccccc3)cc2)nc(N(C)C)n1,3.61
13,CC1=C(C(N)=O)C(c2ccccn2)n2nc(SCc3ccccc3Cl)nc2N1 (stereo not shown),15.1
14,CCCCCOc1ccc(C2C(C(=O)c3ccc(C)o3)=C(O)C(=O)N2c2cc(C)on2)cc1 (stereo not shown),14.1
15,COc1ccc(CN(C(=O)c2nsc(Cl)c2Cl)C(C(=O)NC2CCCCC2)c2ccc(OC)cc2)cc1 (stereo not shown),1.89
16,O=C(Cc1ccc(Cl)cc1)NCC(=O)N1CCN(c2ccccc2)CC1,1.77
17,CCN(CC)c1ccc(CNc2ccc(Br)cn2)cc1,14.6
18,CC1CCN(C(c2ccc(N(C)C)cc2)c2nnnn2C(C)(C)C)CC1 (stereo not shown),7.16
19,CC(C)Nc1nc(Oc2ccc(Cl)cc2)cc(C(F)(F)F)n1,0.609
20,c1ccc(CCC2CCCCN2Cc2nc(-c3ccc4c(c3)OCO4)no2)nc1 (stereo not shown),-0.47
21,CC(C)Cn1c(N)c(C(=O)CSc2nncs2)c(=O)n(C)c1=O,3.51
22,O=C(Nc1ccc(N2CCN(C(=O)c3ccc(Cl)cc3)CC2)cc1)c1cccs1,3.32
23,Cc1ccsc1C(=O)C1CCCN(CCO)C1 (stereo not shown),16.7
24,Cc1ccc(CNC(=O)CCCNS(=O)(=O)c2cccc3nonc23)cc1,13.5
25,Cc1nn2c(-n3ccnc3)c3c(nc2c1-c1ccccc1)CCC3,-3.82
26,COc1ccc(C2CC(c3ccc4ccccc4c3OC(C)=O)=NN2C(C)=O)cc1 (stereo not shown),9.2
27,COc1ccc(C(C(=O)NC2CCCC2)N(CCO)C(=O)Cn2nnc(-c3ccc(C)o3)n2)cc1OC (stereo not shown),13.3
28,COc1cccc(CC(NC(C)=O)C(=O)NC2CCN(c3c(Cc4ccccc4)c(C)nc4ncnn34)CC2)c1 (stereo not shown),9.51

row,SMILES,"hERG current change (%, negative = inhibition) at 1uM [%]"
1,O=C(Nc1ccc2c(c1)ncn2-c1ccccc1)c1ccco1,2.94
2,CC(=O)c1ccc(S(=O)(=O)NCCc2cn3ccc(C)cc3n2)cc1,-3.96
3,Nc1nccc(-c2ccc(-n3cnc4ccccc43)cc2)n1,2.67
4,COc1ccc(OCC(=O)Nc2ccc3c(c2)nc(CCN2CCOCC2)n3C)cc1,1.26
5,O=C(COc1ccccc1Cl)NCCCNC(=O)c1ccco1,10.8
6,CCOc1ccc(C(C)=O)cc1Cn1nc(C(=O)O)c2ccccc2c1=O,7.4
7,COc1ccc(-c2csc(NC(C)c3nc4cc(C(F)(F)F)ccc4n3CCOCCO)n2)cc1 (stereo not shown),8.61
8,Cc1ccccc1S(=O)(=O)c1cc(C#N)c(=O)[nH]c1N,12.7
9,COc1cc(NC(=O)c2ccccc2F)c(OC)cc1NC(=O)CN1CCOCC1.Cl,1.06
10,O=C(O)CCN1C(=O)c2ccncc2C1=O,-0.481
11,O=C(NCc1ccc2c(c1)OCO2)C1CCCN(S(=O)(=O)c2cccc3nonc23)C1 (stereo not shown),2.31
12,CN(C)/C=N/NC(=O)c1ccccc1Cl,15.3
13,O=C(CCc1nc(-c2ccccc2)no1)NC1CCCCCC1,7.67
14,CC(OC(=O)CCC(=O)N1CCN(S(=O)(=O)c2ccc3ccccc3c2)CC1)C(=O)NC(N)=O (stereo not shown),0.435
15,CC(=O)c1cccc(NC(=S)NC(=O)c2ccc(C)cc2Cl)c1,10.9
16,S=C(NCC(c1ccco1)N1CCCC1)Nc1ccccc1 (stereo not shown),14
17,CCCc1cc(C(=O)N2CCCC(C(=O)c3cc(C)c(OC)c(C)c3)C2)n(C)n1 (stereo not shown),-5.97
18,Cc1onc(C(=O)N2CCC(C(N)=O)CC2)c1-c1ccccc1Cl,14.7
19,CCC1CCCCN1CCCNC(=O)CSc1nc2nc(C)c(Cc3ccccc3)c(C)n2n1 (stereo not shown),-13.2
20,O=C(CSc1nc2[nH]ncc2c(=O)n1-c1ccccc1Br)NCc1ccccc1Cl,-5.9
21,Cc1noc(C)c1S(=O)(=O)Nc1ccccc1Cl,14.9
22,O=C(Nc1cccc(S(=O)(=O)c2cccc(NC(=O)C3CC3)c2)c1)C1CC1,13.2
23,CCN(CC)C(=O)C1CCN(C(=O)c2oc3ccc(C)cc3c2C)CC1,6.87
24,Cc1cccc(CSc2nnc(Cn3c(=O)sc4ccccc43)n2C)c1,-15.2
25,O=C(CSc1n[nH]c(-c2cccs2)n1)NCc1cccs1,0.801
26,COC(=O)c1sc2nc(SCc3cccc(Cl)c3)n(N)c(=O)c2c1C,6.47
27,CCOC(=O)N1CCN(C/C(Cl)=C/c2ccccc2)CC1,10.2
